Test results published in article PMC4336329 (PLoS ONE, 2015).
About 2,200 (0.71%) of roughly 310,000 compounds showed an effect of 50% or more. Effects have a minus sign here. This is one part of the list.

Biological target: human ether-à-go-go-related gene (hERG) potassium channel (human, UniProt Q12809)
Test: primary screen, population patch clamp on CHO cells stably expressing hERG

Sequence of human ether-à-go-go-related gene (hERG) potassium channel (Q12809 whole entry, looked up): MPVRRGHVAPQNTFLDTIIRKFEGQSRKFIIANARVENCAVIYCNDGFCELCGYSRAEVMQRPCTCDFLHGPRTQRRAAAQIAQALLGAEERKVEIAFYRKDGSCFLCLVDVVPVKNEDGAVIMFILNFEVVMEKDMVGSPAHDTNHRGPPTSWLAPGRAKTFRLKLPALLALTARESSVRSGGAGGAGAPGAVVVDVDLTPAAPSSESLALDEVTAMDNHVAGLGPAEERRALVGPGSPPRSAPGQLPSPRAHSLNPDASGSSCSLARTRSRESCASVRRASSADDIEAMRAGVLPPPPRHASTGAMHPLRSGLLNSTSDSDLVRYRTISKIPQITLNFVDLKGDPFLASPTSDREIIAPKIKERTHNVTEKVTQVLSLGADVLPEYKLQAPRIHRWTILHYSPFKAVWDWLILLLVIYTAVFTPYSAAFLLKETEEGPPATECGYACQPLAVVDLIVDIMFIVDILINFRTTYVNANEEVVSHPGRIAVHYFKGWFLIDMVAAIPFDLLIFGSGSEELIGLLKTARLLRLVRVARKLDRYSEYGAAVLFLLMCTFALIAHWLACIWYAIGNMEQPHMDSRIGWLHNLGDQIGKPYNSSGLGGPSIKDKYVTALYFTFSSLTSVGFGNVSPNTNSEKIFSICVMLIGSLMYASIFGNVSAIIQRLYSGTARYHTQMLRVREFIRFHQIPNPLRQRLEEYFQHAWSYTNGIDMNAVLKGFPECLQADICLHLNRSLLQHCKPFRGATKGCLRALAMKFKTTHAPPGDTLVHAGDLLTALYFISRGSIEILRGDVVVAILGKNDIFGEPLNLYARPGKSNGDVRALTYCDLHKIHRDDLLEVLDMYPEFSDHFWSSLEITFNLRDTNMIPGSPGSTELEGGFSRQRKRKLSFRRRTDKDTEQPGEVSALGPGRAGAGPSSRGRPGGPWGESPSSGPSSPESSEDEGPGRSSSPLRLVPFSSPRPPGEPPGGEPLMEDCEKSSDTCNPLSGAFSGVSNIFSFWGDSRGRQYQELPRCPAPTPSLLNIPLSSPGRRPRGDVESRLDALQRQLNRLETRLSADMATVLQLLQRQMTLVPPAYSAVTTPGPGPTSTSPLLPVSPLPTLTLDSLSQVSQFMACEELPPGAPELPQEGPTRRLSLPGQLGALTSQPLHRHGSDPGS

| SMILES | hERG current change (%, negative = inhibition) at 1uM [%] |
| --- | --- |
| CC[C@H](C)[C@H](NC(N)=O)C(=O)NCCc1ccc(Cl)cc1Cl | 15.6 |
| CC(=O)n1nc(-c2ccccc2)cc1-c1ccccc1 | 9.32 |
| CC(=O)c1ccccc1OC(=O)COc1ccc([N+](=O)[O-])cc1 | 13.5 |
| CNCCC=C1c2ccccc2CCc2ccccc21.Cl | 7.49 |
| CC(C)c1ccc(/C=N/NC(=O)C(=O)NCCCN2CCOCC2)cc1 | -5.75 |
| O=S(=O)(c1cccs1)N1CCc2ccccc21 | 2.83 |
| CCCS(=O)(=O)c1c(S(=O)(=O)CCC)c2c(C)cccn2c1C(N)=O | 8.93 |
| CCOC(=O)C1CCN(S(=O)(=O)c2ccc3c(c2)CCN3C(C)=O)CC1 | 6.99 |
| COc1ccc(CNC(=O)C(C)N(Cc2ccco2)C(=O)c2snc(C(N)=O)c2N)cc1 (stereo not drawn) | 0.521 |
| CC(C)Cn1c(=O)c2ccccc2n2c(CCC(=O)NCC3CCCO3)nnc12 (stereo not drawn) | 7.52 |
| CCOc1ccc(N=c2cc(-c3ccc(OC)cc3)oc3ccccc23)cc1 | 1.66 |
| O=C(Nc1nnc(-c2ccco2)o1)c1ccc2ccccc2c1 | 7.83 |
| CCN1CCCc2cc(CN(CCN3CCOCC3)C(=S)Nc3ccccc3C)ccc21 | 11.3 |
| CCCOc1ccc(N2C(=O)CC(N(Cc3ccco3)C(C)=O)C2=O)cc1 (stereo not drawn) | -2.02 |
| O=C(CN1CSCC1=O)N1CCN(S(=O)(=O)c2cccc(F)c2)CC1 | 4.66 |
| CC1(c2cccs2)CC(c2cccs2)=C(C#N)C(=O)N1 (stereo not drawn) | -0.852 |
| Cc1c(C(=O)NCCc2ccc(Cl)cc2)sc2nc3n(c(=O)c12)CCC3 | 9.41 |
| OCCn1c(SC2CCCCC2)nc2ccccc21 | 4.65 |
| CCOc1cc(/C=N\NC(=O)Cn2nc([N+](=O)[O-])cc2C)ccc1OCc1cccc2ccccc12 | 7.11 |
| CC(=O)Nc1ccc(NC(=O)C(C)OC(=O)c2c(C)nn(-c3ccccc3)c2Cl)cc1 (stereo not drawn) | -0.576 |
| COc1ccccc1CNS(=O)(=O)c1c(C)[nH]c(C)c1C(=O)N1CCCCC1 | 1.44 |
| Cc1nccn1CCOc1ccccc1Cl | -8.4 |
| Cc1ccc(C2(C)NC(=O)N(CC(=O)Nc3ccccc3N3CCCC3)C2=O)cc1 (stereo not drawn) | 3.38 |
| CC(OC(=O)c1cc2ccccc2o1)C(=O)Nc1ccc(N2CCOCC2)cc1 (stereo not drawn) | 6.35 |
| COc1ccc(-n2cc(C(=O)c3cc(Cl)ccc3O)cc(C#N)c2=O)cc1 | 6.5 |
| O=C(COC(=O)Cc1ccc(-c2ccccc2)cc1)NCc1ccccc1 | 16.9 |
| CCOC(=O)C1CCN(c2c(-c3ccccc3)c3cc(Cl)ccc3[nH]c2=O)CC1 | 9.13 |

| SMILES | hERG current change (%, negative = inhibition) at 1uM [%] |
| --- | --- |
| COCCSc1ccccc1C(=O)N1CCN(c2ccccc2)CC1 | 11.7 |
| Cc1c(NC(=O)C(C)OC(=O)c2cccnc2Cl)c(=O)n(-c2ccccc2)n1C (stereo not drawn) | 8.31 |
| COc1ccc(N(CC(=O)Nc2ccc3c(c2)OCCO3)S(=O)(=O)c2c(C)noc2C)cc1 | -8.91 |
| CCOC(=O)C(C)N1N=C(/C=C/c2ccc(C)cc2)CCC1=O (stereo not drawn) | 5.69 |
| Cc1c(C(=O)Nc2cccc([N+](=O)[O-])c2)csc1-c1ccccc1 | 11.3 |
| CC1CN(C(=O)c2ccccc2OCc2ccc(Cl)cc2Cl)CC(C)O1 (stereo not drawn) | 5.43 |
| Brc1ccc2c(c1)OCCOCCOCCOCCOCCO2 | -78.6 |
| O=C(NCCCN1CCOCC1)c1cccc(S(=O)(=O)N2CCN(c3ccccc3)CC2)c1 | -24.4 |
| CCCCC1CCC(C(=O)Nc2ccccc2)CC1 (stereo not drawn) | 4.4 |
| CC1CCN(S(=O)(=O)c2nnc(NC(=O)c3cccc([N+](=O)[O-])c3)s2)CC1 | 14.1 |
| CC(C(=O)Nc1ccc2c(c1)OCO2)N(c1ccc(Cl)cc1)S(C)(=O)=O (stereo not drawn) | -0.278 |
| CCOc1ccc(CCNC(=O)CCOc2cc(C)ccc2C)cc1OCC | 7.26 |
| Cc1cc(=O)oc2cc(OCC(=O)N3CCN(C(=O)c4ccco4)CC3)ccc12.Cl | 8.42 |
| COc1ccc(CCCc2nnc(SCC(=O)Nc3cc(C)ccc3C)o2)cc1 | 12 |
| CN(C)CCCN(C(=O)c1ccc(S(=O)(=O)N2CCCCCC2)cc1)c1nc2c(F)cccc2s1.Cl | -5.63 |
| CCCNC(=O)c1cccc(COc2ccccc2OC)c1 | -4.23 |
| CCOc1ccc2oc(C(=O)NCc3ccccc3CN3CCCC3)c(C)c2c1 | -12.2 |
| Cc1ccc(C(CNC(=O)Nc2ccccc2)N2CCN(C)CC2)cc1 (stereo not drawn) | 1.43 |
| COc1ccccc1Oc1nc(-c2ccccc2)cc(C)c1S(C)(=O)=O | 3.89 |
| CCN1CCN(c2cc(C)c3cc(NC(=S)N4CCCC4)ccc3n2)CC1 | 2.21 |
| Cc1ccc(C)c(N2CCN(C(=O)CCS(=O)(=O)c3ccc4c(c3)NC(=O)CO4)CC2)c1 | 7.38 |
| CC(Oc1ccccc1F)C(=O)NNC(=O)c1ccc(F)c(S(=O)(=O)N2CCOCC2)c1 (stereo not drawn) | 9.41 |
| CCC(C)N(C(=O)COC(=O)c1ccccc1SCC(=O)N1CCCC1)C1CCS(=O)(=O)C1 (stereo not drawn) | 11.9 |
| CCOC(=O)c1sc(=S)sc1SCc1cccc(C(F)(F)F)c1 | 15.5 |
| COc1ccc(N2CCN(C(=O)c3ccc4c(c3)NC(=O)C(CSCc3cccc(F)c3)N4)CC2)cc1 (stereo not drawn) | 13.6 |
| CCOc1ccc(NC(=O)C2CC(C)=C(C)CC2C(=O)O)cc1 (stereo not drawn) | -1.62 |
| Oc1ccc(-c2nc3ccccn3c2NCc2ccc3c(c2)OCO3)cc1 | -17.9 |
